# Values joined by “and” are separate entries in the source; they are usually repeats but may differ in a detail not shown here. Equal entries are not always repeated. Inconclusive results, whose numbers are uncertain, are shown with a selection of clear calls. For some assays here: A potency beside an inconclusive call is a rough fit, not a confirmed value. Active and inactive are the calls of the source. Calls come from the whole dose curve; as a rule, active = well fitted curve in the direction sought with a large enough effect; inconclusive = small, poorly fitted or top-dose-only effect, or another doubt; inactive = no such curve, though single readings can be large; an effect the other way counts as inactive or inconclusive. Where a SMILES comes first, the peptide text is derived from it. The star is where a group is joined. Hexanoyl = CCCCCC(=O)*
# Key:
# [1] = qHTS of pediatric cancer cell lines to identify multiple opportunities for drug repurposing: Primary screen for Rh30 cells (AID 1347107); note: % is set by controls: 0 for no effect and ±100 for the full control effect; nearly all actives have a fitted effect of over 75% in size
# How it was run: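 Cells (500-1,000/well) rested 5 h, then received compounds for 48 h; metabolically active cells were measured by CellTiter-Glo luminescence. Final concentrations spanned up to 46 µM (MIPE, 11-point) or 0.59 nM-46 µM (NPC, 8-point) in primary screens, 11-point in follow-ups.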
# [2] = test system: CP268; assay: qHTS profiling for inhibitors of Plasmodium falciparum proliferation (AID 504749); note: nearly all actives have a fitted effect of over 60% in size; note: potency is the fitted concentration of half-maximal effect; details: P. falciparum in erythrocytes, SYBR Green DNA, 72 h; series mostly up to 28.7 µM
# How it was run: (§1)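 In a 72 h erythrocytic culture (37 C, humidified, 5% CO2) at 2.5% hematocrit and 0.3% starting parasitemia, compounds were tested; SYBR Green I in detergent lysis buffer stained parasite DNA overnight.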
# [3] = test system: DIV14; assay: as above; details: P. falciparum in erythrocytes, SYBR Green DNA, 72 h; series mostly up to 28.7 µM
# How it was run: as §1
# [4] = test system: PC26; assay: as above; details: P. falciparum in erythrocytes, SYBR Green DNA, 72 h; series mostly up to 28.7 µM
# How it was run: as §1
# [5] = biological target: Luciferin 4-monooxygenase (Photinus pyralis) (UniProt P08659); assay: Biochemical firefly luciferase enzyme assay for NPC (AID 624030); note: nearly all actives have a fitted effect of over 70% in size; note: potency is the fitted concentration of half-maximal effect;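 for activity change, negative = inhibition: purified P. pyralis luciferase at 10 nM with luciferin and ATP substrate; 0% = DMSO and -100% = full luciferase inhibition by PTC124 control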
# Sequence of UniProt P08659 (P08659 whole entry, looked up): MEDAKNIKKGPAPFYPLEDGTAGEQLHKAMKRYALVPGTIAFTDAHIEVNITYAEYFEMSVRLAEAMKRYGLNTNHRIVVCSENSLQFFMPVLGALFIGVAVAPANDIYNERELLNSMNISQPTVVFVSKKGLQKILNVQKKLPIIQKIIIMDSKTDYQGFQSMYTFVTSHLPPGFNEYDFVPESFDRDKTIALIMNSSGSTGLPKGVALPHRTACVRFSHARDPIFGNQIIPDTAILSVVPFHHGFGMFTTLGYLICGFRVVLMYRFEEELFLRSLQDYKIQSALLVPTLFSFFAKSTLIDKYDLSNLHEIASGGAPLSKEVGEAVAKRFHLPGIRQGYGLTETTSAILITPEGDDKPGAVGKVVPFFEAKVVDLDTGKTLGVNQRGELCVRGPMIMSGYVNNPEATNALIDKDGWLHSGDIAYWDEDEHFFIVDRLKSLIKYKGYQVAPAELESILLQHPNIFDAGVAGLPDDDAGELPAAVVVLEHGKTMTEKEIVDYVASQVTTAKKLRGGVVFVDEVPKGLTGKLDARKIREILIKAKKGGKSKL
# How it was run: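 Direct inhibition of firefly luciferase enzyme (10 nM final, 50 mM Tris Acetate) assessed by luminescence within 5 minutes. Percent activity scaled between DMSO and PTC124 positive control, with concentration-effect curves classified by fit quality and response.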
# [6] = test system: DIV30; assay: qHTS profiling for inhibitors of Plasmodium falciparum proliferation (AID 504749); note: nearly all actives have a fitted effect of over 60% in size; note: potency is the fitted concentration of half-maximal effect; details: P. falciparum in erythrocytes, SYBR Green DNA, 72 h; series mostly up to 28.7 µM
# How it was run: as §1
# [7] = Quantitative High-Throughput drug screen in 47 multiple myeloma cell lines against the NCATS MIPE library collection: KHM11_PLB cell viability assay (AID 1918962); details: KHM11 myeloma cell viability, CellTiter-Glo ATP luminescence, 48 h; viability, % of DMSO control: at 45.8 µM (top of the series); note: potency is the fitted concentration of half-maximal effect; nearly all actives have a fitted effect of over 35% in size
# How it was run: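 Approved and investigational drugs from MIPE 4.0 were added by pin tool to 500 cells per well. After 48 hours at 37C, ATP-based CellTiter-Glo luminescence indicated remaining viability.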
# [8] = Quantitative High-Throughput drug screen in 47 multiple myeloma cell lines against the NCATS MIPE library collection: Karpas25_ECACC cell viability assay (AID 1918968; note: nearly all actives have a fitted effect of over 35% in size; note: potency is the fitted concentration of half-maximal effect); details: Karpas25 myeloma viability, CellTiter-Glo ATP, 48 h; viability (% of control): at 45.8 µM (top of the series)
# How it was run: (§2)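 Steps: seed 500 cells per well; pin-transfer MIPE 4.0 library; incubate 48 h at 37C, 5% CO2, humidified; add CellTiter-Glo, 5 min room temperature; read luminescence.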
# [9] = Quantitative High-Throughput drug screen in 47 multiple myeloma cell lines against the NCATS MIPE library collection: KMS12BM_JCRB cell viability assay (AID 1918971); note: nearly all actives have a fitted effect of over 35% in size; note: potency is the fitted concentration of half-maximal effect
# How it was run: (§3)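 We plated 500 myeloma cells per well, pinned in MIPE 4.0 compounds, and incubated for 48 hours at 37C. ATP was then quantified with CellTiter-Glo, with DMSO and media-only wells defining 100% and 0%.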
# [10] = Quantitative High-Throughput drug screen in 47 multiple myeloma cell lines against the NCATS MIPE library collection: KMS20_JCRB cell viability assay (AID 1918973); details: CellTiter-Glo ATP, 48 h; viability (% of DMSO): at 45.8 µM (top of the series); note: nearly all actives have a fitted effect of over 45% in size; note: potency is the fitted concentration of half-maximal effect
# How it was run: as §2
# [11] = Quantitative High-Throughput drug screen in 47 multiple myeloma cell lines against the NCATS MIPE library collection: KMS26_JCRB cell viability assay (AID 1918975); note: nearly all actives have a fitted effect of over 45% in size; note: potency is the fitted concentration of half-maximal effect
# How it was run: as §3
# [12] = Quantitative High-Throughput drug screen in 47 multiple myeloma cell lines against the NCATS MIPE library collection: MMM1_PLB cell viability assay (AID 1918976); note: potency is the fitted concentration of half-maximal effect; nearly all actives have a fitted effect of over 35% in size
# How it was run: (§4)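 ATP-based luminescence (CellTiter-Glo, 5 min RT incubation) quantified surviving cells following two days' treatment with MIPE 4.0 agents at 37 °C, 5% CO2.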
# [13] = Quantitative High-Throughput drug screen in 47 multiple myeloma cell lines against the NCATS MIPE library collection: LP1_DSMZ cell viability assay (AID 1918982); note: nearly all actives have a fitted effect of over 35% in size; note: potency is the fitted concentration of half-maximal effect
# How it was run: as §4
# [14] = Quantitative High-Throughput drug screen in 47 multiple myeloma cell lines against the NCATS MIPE library collection: L363_DSMZ cell viability assay (AID 1918984); details: L363 myeloma viability, CellTiter-Glo ATP luminescence, 48 h; viability (% of control): at 45.8 µM (top of the series); note: potency is the fitted concentration of half-maximal effect; nearly all actives have a fitted effect of over 40% in size
# How it was run: as §4
# [15] = Quantitative High-Throughput drug screen in 47 multiple myeloma cell lines against the NCATS MIPE library collection: SKMM1_PLB cell viability assay (AID 1919863); details: SKMM1 myeloma viability, CellTiter-Glo ATP, 48 h; viability: stronger effect = lower value; note: nearly all actives have a fitted effect of over 35% in size; note: potency is the fitted concentration of half-maximal effect
# How it was run: as §4
# [16] = Quantitative High-Throughput drug screen in 47 multiple myeloma cell lines against the NCATS MIPE library collection: VP6_DJ cell viability assay (AID 1919867); note: nearly all actives have a fitted effect of over 40% in size; note: potency is the fitted concentration of half-maximal effect
# How it was run: as §4
# [17] = qHTS of pediatric cancer cell lines to identify multiple opportunities for drug repurposing: Primary screen for TC32 cells (AID 1347089); note: potency is the fitted concentration of half-maximal effect; nearly all actives have a fitted effect of over 60% in size
# How it was run: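 A viability screen of TC32 cells was run over 48 h, with primary MIPE doses spanning 0.78 nM–46 µM and NPC doses 0.59 nM–46 µM. ATP luminescence (CellTiter-Glo) served as the read-out.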
# [18] = Quantitative High-Throughput drug screen in 47 multiple myeloma cell lines against the NCATS MIPE library collection: Karpas417_ECACC cell viability assay (AID 1918961); details: Karpas417 myeloma viability, CellTiter-Glo ATP luminescence, 48 h; viability (% of DMSO): at 45.8 µM (top of the series); note: potency is the fitted concentration of half-maximal effect
# How it was run: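 Inhibition of cell viability is measured here. Each line was plated at 500 cells per well, treated with MIPE 4.0 drugs, kept 48 hours at 37C, then assayed for ATP content by CellTiter-Glo luminescence.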
# [19] = biological target: Calcium and integrin-binding protein 1 (Homo sapiens) (UniProt Q99828); assay: Primary qHTS for Identification of Calcium Integrin Binding Protein 1 (CIB1) Competitor (AID 1508620); note: potency is the fitted concentration of half-maximal effect;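 for activity change, negative = inhibition: GST tagged CIB1 binding a fluorescein labelled alphaIIb integrin peptide tracer; top concentration of the series differs between compounds; % is set by controls: 0 for no effect and ±100 for the full control effect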
# Sequence of UniProt Q99828 (Q99828 whole entry, looked up): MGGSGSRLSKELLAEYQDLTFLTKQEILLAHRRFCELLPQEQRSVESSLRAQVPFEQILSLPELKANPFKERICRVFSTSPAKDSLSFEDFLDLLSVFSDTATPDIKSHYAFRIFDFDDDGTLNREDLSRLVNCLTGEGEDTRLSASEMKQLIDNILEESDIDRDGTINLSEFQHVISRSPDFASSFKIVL
# How it was run: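 CIB1-GST (1 uM final) and compound incubated 15 min at room temperature before adding FITC-alphaIIb peptide tracer (100 nM final). Competition for binding read by fluorescence polarization (ex 480, em 540) after another 15 min at room temperature.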
# [20] = qHTS to identify inhibitors of the type 1 interferon - major histocompatibility complex class I in skeletal muscle: primary screen against the NCATS Mechanism Interrogation Plate v5.0 (MIPE) Libary (AID 1347411); details: iHSKM cells + IFN-b, HiBiT-tagged MHC-I luminescence, 24 h; activity change, negative = inhibition: at 45.8 µM (top of the series); note: potency is the fitted concentration of half-maximal effect; nearly all actives have a fitted effect of over 65% in size
# How it was run: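 IFN-beta-driven (4 ng/ml) HLA-B-HiBit expression in CRISPR-tagged C25cl48 myoblasts; compounds 11-pt, 1:3, max 46 uM, 24 hr exposure; lytic NanoLuc complementation luminescence.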
# Tags give direction and shape of the fitted curve.
smiles,measurement,setting,value
C[C@H]1COc2c(C3(N)CC3)c(F)cc3c(=O)c(C(=O)O)cn1c23,Potency,[1],inactive
same,Potency,[2],"inconclusive: 19 µM [inhibitor, single point]"
same,Potency,[3],"inconclusive: 12 µM [inhibitor, single point]"
O=C1Nc2cc(Cl)ccc2Oc2ccccc21,Potency,[1],inactive
O=C(NCN1CCOCC1)c1cnccn1,Potency,[3],inactive
same,Potency,[4],inactive
COc1ccc(S(=O)(=O)Nc2nnc(CC(C)C)s2)cc1,Potency,[5],inactive
same,Potency,[3],inactive and inconclusive: 0.8 nM [activator]
COc1cc(C(=O)N2CCCCCCC2)cc(OC)c1OC,Potency,[2],inactive
same,Potency,[6],inactive
O=C1c2c(O)cccc2[C@@H]([C@@H]2O[C@H](CO)[C@@H](O)[C@H](O)[C@H]2O)c2cc(CO)cc(O)c21,Potency,[1],inactive
same,Potency,[7],"inconclusive: 0.0019 µM [rising, full curve, poor fit]"
same,Potency,[8],inactive
same,Potency,[9],inactive
same,Potency,[10],inactive
same,Potency,[11],inactive
same,Potency,[12],"inconclusive: 0.0105 µM [rising, full curve, poor fit]"
same,Potency,[13],inactive
same,Potency,[14],"inconclusive: 6.62 µM [rising, single point]"
same,viability,[15],inactive: 153%
same,Potency,[16],inactive
CN[C@H]1[C@@H](O)[C@@H]2O[C@@H]3O[C@H](C)CC(=O)[C@]3(O)O[C@@H]2[C@@H](NC)[C@H]1O,Potency,[17],active: 13.1 µM
same,Potency,[18],active: 0.469 µM
same,Potency,[7],active: 8.33 µM
same,Potency,[8],active: 0.0743 µM
same,Potency,[10],"inconclusive: 1.05 µM [cytotoxic, full curve, poor fit]"
same,Potency,[13],active: 5.9 µM
same,Potency,[14],active: 0.743 µM
CCNC(=O)N1CCN(CCCC(c2ccc(F)cc2)c2ccc(F)cc2)CC1,Potency,[2],active: 2.39 µM
same,Potency,[4],active: 4.78 µM
CCc1oc2ccccc2c1C(=O)c1cc(I)c(O)c(I)c1,Potency,[5],"inconclusive: 36.1 µM [inhibitor, partial curve]"
same,Potency,[19],"inconclusive: 39.8 µM [inhibitor, partial curve]"
CN(C)CCC(c1ccccc1)c1ccccn1 (stereo not given),Potency,[2],"inconclusive: 12 µM [inhibitor, partial curve]"
same,Potency,[3],active: 6.75 µM
same,Potency,[6],"inconclusive: 6.01 µM [inhibitor, partial curve]"
same,Potency,[4],"inconclusive: 12 µM [inhibitor, partial curve]"
O=C(O)COCCN1CCN(C(c2ccccc2)c2ccc(Cl)cc2)CC1 (stereo not given),Potency,[18],"inconclusive: 16.6 µM [rising, partial curve, poor fit]"
same,Potency,[7],active: 7.43 µM
same,Potency,[8],inactive
same,Potency,[9],inactive
same,Potency,[10],"inconclusive: 0.0662 µM [cytotoxic, full curve, poor fit]"
same,Potency,[11],"inconclusive: 37.2 µM [cytotoxic, single point]"
same,Potency,[12],active: 14.8 µM
same,Potency,[13],"inconclusive: 23.5 µM [cytotoxic, partial curve, poor fit]"
same,Potency,[14],active: 0.296 µM
same,viability,[15],inactive: 122%
same,Potency,[16],inactive
CC(C)(O)CC[C@@H](O)[C@](C)(O)[C@H]1CC[C@@]2(O)C3=CC(=O)[C@@H]4C[C@@H](O)[C@@H](O)C[C@]4(C)[C@@H]3CC[C@]12C,Potency,[18],"inconclusive: 0.833 µM [cytotoxic, partial curve, poor fit]"
same,Potency,[7],"inconclusive: 5.9 µM [cytotoxic, partial curve, poor fit]"
same,Potency,[8],inactive
same,Potency,[9],inconclusive: 0.001 µM [cytotoxic]
same,Potency,[10],inactive
same,Potency,[11],"inconclusive: 0.0037 µM [cytotoxic, full curve, poor fit]"
same,Potency,[12],"inconclusive: 0.332 µM [cytotoxic, partial curve, poor fit]"
same,Potency,[14],"inconclusive: 0.0021 µM [cytotoxic, full curve, poor fit]"
same,Potency,[15],"inconclusive: 29.6 µM [cytotoxic, partial curve, poor fit]"
same,Potency,[16],"inconclusive: 0.0013 µM [rising, full curve, poor fit]"
CC[C@@H]([C@H](C)O)n1ncn(-c2ccc(N3CCN(c4ccc(OC[C@@H]5CO[C@@](Cn6cncn6)(c6ccc(F)cc6F)C5)cc4)CC3)cc2)c1=O,Potency,[1],inactive
O=C(O)[C@H](CC(=O)N1C[C@H]2CCCC[C@H]2C1)Cc1ccccc1,Potency,[6],inactive
CC(C)(C)C(O)/C=C/c1ccc2c(c1)OCO2 (stereo not given),Potency,[5],"inconclusive: 20.3 µM [inhibitor, partial curve]"
O=C(O)c1cc(O)c2cccc(O)c2c1O[C@@H]1O[C@H](CO)[C@@H](O)[C@H](O)[C@H]1O,Potency,[19],"inconclusive: 39.8 µM [inhibitor, partial curve, poor fit]"
COc1ncc(Nc2ncc([C@H](C)N3CCN(S(C)(=O)=O)CC3)cc2-c2nc(C)nc(N)n2)cc1F,Potency,[20],"inconclusive: 0.131 µM [inhibitor, full curve]"
same,Potency,[19],inactive
C=C1C(=O)OC2CC3(C)C(O)C(=O)C=C(C)C3CC12 (stereo not given),Potency,[19],inactive
CCCCCC(=O)N1CCC[C@H]1C(=O)N[C@@H](Cc1ccc(O)cc1)C(=O)OC (Hexanoyl-Pro-Tyr-OMe),Potency,[19],inactive
